The source of these data is the supplement of paper PMC11417369.

± gives the standard deviation of the averaged measurements. The list shows a part of the results.

The subject of the test is PfAP2-G AP2 domain (GST-tagged). Kind of test: gcPBM binding intensity (ln(normalized median fluorescence intensity)); higher = stronger DNA binding. Summed up: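 The binding buffer was 1× PBS containing 1% milk, 0.2 mg/ml BSA, 0.5% salmon testes DNA and 0.03% Triton X-100. In it, GST-tagged P. falciparum DNA-binding domains expressed in E. coli were applied for 1 h to an Agilent 4 × 180k array of primer-extended double-stranded 36-bp intergenic genomic probes plus negative controls. Binding intensity, read with Alexa488 anti-GST antibody and a 488 nm scan, is the highest Masliner-normalised natural-log median intensity across replicate spots of either probe orientation.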
Consider “AGGTTAAAACATATATATATATATATATATATATAT [XGTACX_negctrl_site333]”, for which the “gcPBM binding intensity (ln)” value is 9.68 ± 0.35. In the case of TTATACAGGACAATAGTGCACATAAATATATGTATA, the “gcPBM binding intensity (ln)” value was determined as 10.5 ± 0.33. “GCAGTCAAAAAGGAAAATATAAAAAAAGTATATGTG [GTGCAC_negctrl_site95]”: the “gcPBM binding intensity (ln)” value came to 10.1 ± 0.14.

As to ATATATTAAAACCTAGTGCATTTGTACATATTTCAA, the “gcPBM binding intensity (ln)” value was 11 ± 0.52.

Regarding “TATATATATATATACACACACACCGTCCGTGTTAAA [CACACA_site2979]”, the “gcPBM binding intensity (ln)” value was found to be 10.5 ± 0.54. In the case of “TGAAATAAAATTTATACACACTTGCTAAATGATCAT [CACACA_site4265]” it was 9.905 ± 0.078; in that of “TTTTTTGTTATTAAAAGTACATTATATGCTAGTTAA [XGTACX_site8747]”, 11.2 ± 0.73; in that of “TTAAAAATATTATGTACACACATTTGAGATATTTGT [CACACA_site6953]”, 11.5 ± 0.96. As for “TTCGTAATTTATATCACACACATATATCTATAATAA [CACACA_site7458]”, the “gcPBM binding intensity (ln)” value is 9.825 ± 0.092. In the case of “TATCATTAATTTACATGTACATAAATGAATGTTTAT [XGTACX_site5608]” it was 11.1 ± 0.54; in that of “AATATATAAATATTGTGTACTTATTTTTTTATATGT [XGTACX_site4377]”, 11.5 ± 0.85; in that of “ATAAATTCTATGTATACACACATATAAAATATAGAT [CACACA_site7296]”, 10.2 ± 0.37.

“AAAGGCTATCTTATATACTCCTAAAACGCGAACGTA [CACACA_negctrl_site396]”: the “gcPBM binding intensity (ln)” value stood at 10.1 ± 0.23. For “ATTATATACATATATGCACACAAAAAAATATATATT [CACACA_site8508]”, the “gcPBM binding intensity (ln)” value stood at 10.2 ± 0.21. In the case of “TTCCTATAAAAAAACACACACATATAAATATATATA [CACACA_site2318]” it was 9.8 ± 0.26. For “ATATGTATGAAGTGTACACATATATTGTATTTTCTT [CACACA_site5503]”, the “gcPBM binding intensity (ln)” value came to 11.7 ± 0.91.

With “GTAAGCACACATAGTTGTACATTAATAAAAATAAAT [XGTACX_site5876]”, the “gcPBM binding intensity (ln)” value turned out to be 11.3 ± 0.82. For “AACAATTTATATAAAGCACACATGGGAAGGAAATAC [CACACA_site1712]”, the “gcPBM binding intensity (ln)” value amounted to 10.4 ± 0.24.

In the case of “TACAATTTAATATATACACACAAATAAATTATGCTT [CACACA_site856]”, the “gcPBM binding intensity (ln)” value was 9.62 ± 0.17. As for “TATTAATACAGACACACACACACACCCAATAAAATA [CACACA_site243]”, the “gcPBM binding intensity (ln)” value stood at 10.3 ± 0.39.

Regarding “ATAAATTCATATATGAGTACTAAAAATATCTTTTTC [XGTACX_site5541]”, the “gcPBM binding intensity (ln)” value is 10.9 ± 0.49. With “ATATATGACAAATGTAGTACAAATTATTGTATCATA [XGTACX_site3675]”, the “gcPBM binding intensity (ln)” value is 11.4 ± 0.76. The figure for “TTATTGCATATTTACACACGTACTAATTTAAACAAG [CACACA_site971]” is 11.1 ± 0.65; for “AGAATATTTAAAAAAGGTACACAAAAACCAAAATAA [XGTACX_site8569]” it is 11.4 ± 0.75.

In the case of “AAAAAAAACGAACACACACACATTCAATATAAAACA [CACACA_site6170]”, the “gcPBM binding intensity (ln)” value came out at 10.2 ± 0.25.

With “CAATGGTCATTTAGTTGTACTTAATTTTAAATCAAA [XGTACX_site4075]”, the “gcPBM binding intensity (ln)” value was 11.6 ± 1.

On to “GATATTATGTGTTTGGTATTTTTTGATGTTGGTAGG [XGTACX_negctrl_site563]”, for which the “gcPBM binding intensity (ln)” value worked out at 10.2 ± 0.18. The figure for “TAGAACAAATAAAACACACACATATAAATATAGATG [CACACA_site7325]” is 9.94 ± 0.028; for “ATATCTATGTTTATCTCGAATAACTTAAAAAATTAT [CACACA_negctrl_site1131]” it is 9.845 ± 0.021. In the case of “GTGCAAAATATTTTTACACACAAATTCTTACAACAG [CACACA_site7556]” it was 10.1 ± 0.028; in that of “TTATCACACCTTTTTTGTACGAAATAAAAAAAAAAA [XGTACX_site5564]”, 10.8 ± 0.71.

As to “TAATATGCTCATGTAACACACATTTGCATATTTTTC [CACACA_site1357]”, the “gcPBM binding intensity (ln)” value turned out to be 9.79 ± 0.057.

“TCTTTCTAAAGATGTAGTACAAAATAAATATAATAT [XGTACX_site6564]”: the “gcPBM binding intensity (ln)” value was determined as 11.5 ± 0.81. For “TTTATACAAACAACTTTATATTAATGTTTAACGGAG [GTGCAC_negctrl_site396]”, the “gcPBM binding intensity (ln)” value was 9.76. Take “AAGGCAAACAAACACACACACATATATACATATATA [CACACA_site2122]”: the “gcPBM binding intensity (ln)” value stood at 10 ± 0.17.

Turning to “TATATACACATATATAAACACACAAAAAAAAAAAAA [CACACA_site8626]”, the “gcPBM binding intensity (ln)” value is 9.89 ± 0.48. Regarding “ATACAAATTGTTTAAAGTACAAATTACACCTCTTAA [XGTACX_site6888]”, the “gcPBM binding intensity (ln)” value turned out to be 10.8 ± 0.46. For “TTTTTTTTTTTTTAAACATGCATATTAATATTATAT [TGCATGCA_site820]”, the “gcPBM binding intensity (ln)” value was determined as 9.52 ± 0.19.

As for “TAAAAAGGAAGACACACACACACATATATAAATATA [CACACA_site7657]”, the “gcPBM binding intensity (ln)” value is 10.1 ± 0.2. The figure for “GTATATCACACATTTGCATGTTGTCAATAGTTTATC [TGCATGCA_site134]” is 10.23 ± 0.014; for “CATACAGACATACATACACACATACATACAGACATA [CACACA_site6996]” it is 10.09 ± 0.099; for “TGTAAATATATATATACACACACACCGAAGCAATAG [CACACA_site8960]” it is 10.3 ± 0.26. In the case of “AATTTTATTCATTGAGCACACAAAATAAATTATCAA [CACACA_site9079]” it was 10.3 ± 0.36. With “ATCTTTTATATAAAATGTACAGAGTTTGAAAGAATA [XGTACX_site8826]”, the “gcPBM binding intensity (ln)” value was 10.8 ± 0.5.
